{
  "source": "a collection of fitness landscapes (doi:10.1126/science.1257360)",
  "parents": {"B1": {"name": "PhoQ; a variant is named by its letters at X, in order, P23837 (parent)", "chain": "MKKLLRLFFPLSLRVRFLLATAAVVLVLSLAYGMVALIGYSVSFDKTTFRLLRGESNLFYTLAKWENNKLHVELPENIDKQSPTMTLIYDENGQLLWAQRDVPWLMKMIQPDWLKSNGFHEIEADVNDTSLLLSGDHSIQQQLQEVREDDDDAEMTHSVAVNVYPATSRMPKLTIVVVDTIPVELKSSYMVWSWFIYVLSANLLLVIPLLWVAAWWSLRPIEALAKEVRELEEHNRELLNPATTRELTSLVRNLNRLLKSERERYDKYRTTLTDLTHSLKTPLXXLQXXLRSLRSEKMSVSDAEPVMLEQISRISQQIGYYLHRASMRGGTLLSRELHPVAPLLDNLTSALNKVYQRKGVNISLDISPEISFVGEQNDFVEVMGNVLDNACKYCLEFVEISARQTDEHLYIVVEDDGPGIPLSKREVIFDRGQRVDTLRPGQGVGLAVAREITEQYEGKIVAGESMLGGARMEVIFGRQHSAPKDE"}},
  "note": "The other results are listed elsewhere or left out.",
  "data": [
    {"variants_of": "B1", "test": "enrichment ratio after two sorts for PhoP signalling (ratio (wild type AVST 3.29)); higher = more functional", "details": "with PhoP (E. coli)", "values": [
      {"variant": "ISEC", "enrichment ratio": "≤ 0.25"},
      {"variant": "PWMS", "enrichment ratio": "≤ 0.25"},
      {"variant": "NVVK", "enrichment ratio": "≤ 0.25"},
      {"variant": "KIIW", "enrichment ratio": "≤ 0.25"},
      {"variant": "YGEV", "enrichment ratio": "≤ 0.25"},
      {"variant": "ADIR", "enrichment ratio": 4.04},
      {"variant": "MMYL", "enrichment ratio": 3.03},
      {"variant": "EWVG", "enrichment ratio": "≤ 0.25"},
      {"variant": "YELR", "enrichment ratio": "≤ 0.25"},
      {"variant": "VQEC", "enrichment ratio": "≤ 0.25"},
      {"variant": "DNWR", "enrichment ratio": "≤ 0.25"},
      {"variant": "KLDG", "enrichment ratio": "≤ 0.25"},
      {"variant": "IILF", "enrichment ratio": "≤ 0.25"},
      {"variant": "FADQ", "enrichment ratio": "≤ 0.25"},
      {"variant": "GQCM", "enrichment ratio": 1.51},
      {"variant": "ASCI", "enrichment ratio": 19.9},
      {"variant": "PAGS", "enrichment ratio": "≤ 0.25"},
      {"variant": "KCVE", "enrichment ratio": "≤ 0.25"},
      {"variant": "LGEF", "enrichment ratio": "≤ 0.25"},
      {"variant": "GRLH", "enrichment ratio": "≤ 0.25"},
      {"variant": "FNPW", "enrichment ratio": "≤ 0.25"},
      {"variant": "TLST", "enrichment ratio": 7.45},
      {"variant": "DIAM", "enrichment ratio": "≤ 0.25"},
      {"variant": "WYAP", "enrichment ratio": "≤ 0.25"},
      {"variant": "YDHL", "enrichment ratio": "≤ 0.25"},
      {"variant": "SRES", "enrichment ratio": "≤ 0.25"},
      {"variant": "GKLM", "enrichment ratio": 12.5},
      {"variant": "LLRI", "enrichment ratio": "≤ 0.25"},
      {"variant": "IRTY", "enrichment ratio": "≤ 0.25"},
      {"variant": "YWEY", "enrichment ratio": "≤ 0.25"},
      {"variant": "THVY", "enrichment ratio": 0.941},
      {"variant": "SFYQ", "enrichment ratio": "≤ 0.25"},
      {"variant": "FSGV", "enrichment ratio": "≤ 0.25"},
      {"variant": "ELKW", "enrichment ratio": "≤ 0.25"},
      {"variant": "QNWD", "enrichment ratio": "≤ 0.25"},
      {"variant": "MCIP", "enrichment ratio": "≤ 0.25"},
      {"variant": "VLWM", "enrichment ratio": "≤ 0.25"},
      {"variant": "YCRS", "enrichment ratio": "≤ 0.25"},
      {"variant": "HQSS", "enrichment ratio": "≤ 0.25"},
      {"variant": "HSCG", "enrichment ratio": "≤ 0.25"},
      {"variant": "MLCG", "enrichment ratio": "≤ 0.25"},
      {"variant": "VYCM", "enrichment ratio": "≤ 0.25"},
      {"variant": "PNCY", "enrichment ratio": "≤ 0.25"},
      {"variant": "GYLK", "enrichment ratio": "≤ 0.25"},
      {"variant": "YQPR", "enrichment ratio": "≤ 0.25"},
      {"variant": "MWDI", "enrichment ratio": "≤ 0.25"},
      {"variant": "TYSH", "enrichment ratio": 1.78},
      {"variant": "PKGR", "enrichment ratio": "≤ 0.25"},
      {"variant": "KTPN", "enrichment ratio": "≤ 0.25"},
      {"variant": "QENC", "enrichment ratio": "≤ 0.25"},
      {"variant": "TNCF", "enrichment ratio": "≤ 0.25"},
      {"variant": "SYPS", "enrichment ratio": "≤ 0.25"},
      {"variant": "YGIR", "enrichment ratio": "≤ 0.25"},
      {"variant": "REYS", "enrichment ratio": "≤ 0.25"},
      {"variant": "AHFA", "enrichment ratio": "≤ 0.25"},
      {"variant": "RWST", "enrichment ratio": "≤ 0.25"},
      {"variant": "PDCG", "enrichment ratio": "≤ 0.25"},
      {"variant": "INQI", "enrichment ratio": "≤ 0.25"},
      {"variant": "EFRE", "enrichment ratio": "≤ 0.25"},
      {"variant": "VGTQ", "enrichment ratio": "≤ 0.25"},
      {"variant": "LGIQ", "enrichment ratio": "≤ 0.25"},
      {"variant": "AHIR", "enrichment ratio": "≤ 0.25"},
      {"variant": "REWH", "enrichment ratio": "≤ 0.25"},
      {"variant": "DFKQ", "enrichment ratio": "≤ 0.25"},
      {"variant": "VQGP", "enrichment ratio": "≤ 0.25"},
      {"variant": "HWQT", "enrichment ratio": "≤ 0.25"},
      {"variant": "VYFN", "enrichment ratio": "≤ 0.25"},
      {"variant": "VRTT", "enrichment ratio": "≤ 0.25"},
      {"variant": "LKYM", "enrichment ratio": "≤ 0.25"},
      {"variant": "SKTS", "enrichment ratio": 3.33},
      {"variant": "YGYI", "enrichment ratio": "≤ 0.25"},
      {"variant": "TTWC", "enrichment ratio": 1.31},
      {"variant": "IFLQ", "enrichment ratio": "≤ 0.25"},
      {"variant": "ISHY", "enrichment ratio": "≤ 0.25"},
      {"variant": "AVRS", "enrichment ratio": "≤ 0.25"},
      {"variant": "FVHQ", "enrichment ratio": "≤ 0.25"},
      {"variant": "NVPN", "enrichment ratio": "≤ 0.25"},
      {"variant": "AAGR", "enrichment ratio": "≤ 0.25"},
      {"variant": "NYDG", "enrichment ratio": "≤ 0.25"},
      {"variant": "FAPC", "enrichment ratio": "≤ 0.25"},
      {"variant": "YAGL", "enrichment ratio": "≤ 0.25"},
      {"variant": "IMQF", "enrichment ratio": "≤ 0.25"},
      {"variant": "DPTK", "enrichment ratio": "≤ 0.25"},
      {"variant": "MYGP", "enrichment ratio": "≤ 0.25"},
      {"variant": "NHQM", "enrichment ratio": "≤ 0.25"},
      {"variant": "LRPR", "enrichment ratio": "≤ 0.25"},
      {"variant": "VWSM", "enrichment ratio": "≤ 0.25"},
      {"variant": "VCTV", "enrichment ratio": 1.45},
      {"variant": "ALAC", "enrichment ratio": 0.412},
      {"variant": "DHDD", "enrichment ratio": "≤ 0.25"},
      {"variant": "MMID", "enrichment ratio": "≤ 0.25"},
      {"variant": "GPVV", "enrichment ratio": "≤ 0.25"},
      {"variant": "MWVL", "enrichment ratio": "≤ 0.25"},
      {"variant": "AIYA", "enrichment ratio": 0.272},
      {"variant": "TKRH", "enrichment ratio": "≤ 0.25"},
      {"variant": "CRKS", "enrichment ratio": "≤ 0.25"},
      {"variant": "LKMI", "enrichment ratio": "≤ 0.25"},
      {"variant": "EFDF", "enrichment ratio": "≤ 0.25"}
    ]}
  ]
}
